Key:
IFNγ = IFNγ production assay in splenocyte cultures (ELISA); type: cell-based; conditions: mouse splenocyte culture supernatant, secosteroid 1.0 nM, 72 h; control 710 ± 9
Description: All animal experiments in this study were performed in accordance with the NIH animal use guidelines and protocol (protocol No.: 15–043.0) approved by the Institutional Animal Care and Use Committee (IACUC) at the University of Tennessee Health Science Center (UTHSC, Memphis, TN). Splenocytes were isolated from 7-week old C57BL/6 female mice and cultured at 2 × 10^6/mL 500 μL/well for 72 h at 37 °C in a humidified atmosphere. Harvested supernatants were analyze for levels of murine IFNγ by ELISA (R & D Systems Minneapolis, MN) according to the manufacturer’s instructions. Results are expressed as mean [IFNγ] ± SEM of triplicate determinations (pg/mL) of culture supernatant. The difference in [IFNγ] between EtOH vehicle + anti-CD3e MOAB (0.08 μg/mL) and [IFNγ] in each of the cultures containing D3 analog was analyzed by one way ANOVA Sigma. The amount of EtOH in the EtOH + PBS and EtOH + anti-CD3e MOAB culture was equal to that in the cultures of the D3 analogs at a level of 10^−9 M. Culture medium was RPMI 1640 supplemented with 9% charcoal stripped fetal bovine serum, non-essential amino acids, HEPES buffer Glutamax, penicillin 100 μg/mL, streptomycin 100 μg/mL, fungizone 1 μg/mL (GIBCO, Grand Island, NY) and 50 μM β-mercaptoethanol (Sigma, St. Louis, MO)[35].

IL1β = IL1β production assay in splenocyte cultures (ELISA); type: cell-based; conditions: mouse splenocyte culture supernatant, LPS 100 ng/mL, secosteroid 100 nM, 24 h; control 123 ± 2
Description: Splenocytes were isolated from 7-week old C57BL/6 female mice and cultured at 2 × 10^6/mL, 500 μL/well, for 24 h at 37 °C in a humidified atmosphere. The vitamin D analogs or EtOH vehicle were added to the splenocyte cultures 2 h prior to addition of Lipopolysaccharide W E. coli 055:B5 (LPS) (Difco Lab. Defrost MI) 100 ng/mL or PBS vehicle. Harvested supernatants were analyzed for levels of murine IL1β by ELISA (R & D Systems Minneapolis, MN) according to the manufacturer’s instructions. Results are expressed as mean IL1β concentration ± SEM of triplicate determinations (pg/mL) of culture supernatant. The amount of EtOH in the EtOH + PBS and EtOH + LPS culture was equal to that in the cultures of the vitamin D analogs at a level of 10^-7 M. Culture medium was RPMI 1640 supplemented with 9% charcoal stripped fetal bovine serum, non-essential amino acids, HEPES buffer Glutamax, penicillin 100 μg/mL, streptomycin 100 μg/mL, fungizone 1 μg/mL (GIBCO, Grand Island, NY) and 50 μM β-mercaptoethanol (Sigma, St. Louis, MO). The difference in [IL1β] between control and D3 analog treatment was analyzed by one way ANOVA (Sigma Plot 13.0).

TRPV6 gene (mRNA) = experiment: Real-time PCR, TRPV6 mRNA expression in HaCaT cells; conditions: 100 nM, 24 h
CYP24A1 gene (mRNA) = experiment: Real-time PCR, CYP24A1 mRNA expression in HaCaT cells; conditions: 100 nM, 24 h
VDR [1] = molecular target: T1, VDR (Homo sapiens, UniProt P11473); experiment: VDRE-reporter (luciferase) assay in Caco-2 cells; conditions: read-out: VDRE stimulation, EC50 ± standard deviation, 24 h incubation
T1 sequence (P11473 1-427): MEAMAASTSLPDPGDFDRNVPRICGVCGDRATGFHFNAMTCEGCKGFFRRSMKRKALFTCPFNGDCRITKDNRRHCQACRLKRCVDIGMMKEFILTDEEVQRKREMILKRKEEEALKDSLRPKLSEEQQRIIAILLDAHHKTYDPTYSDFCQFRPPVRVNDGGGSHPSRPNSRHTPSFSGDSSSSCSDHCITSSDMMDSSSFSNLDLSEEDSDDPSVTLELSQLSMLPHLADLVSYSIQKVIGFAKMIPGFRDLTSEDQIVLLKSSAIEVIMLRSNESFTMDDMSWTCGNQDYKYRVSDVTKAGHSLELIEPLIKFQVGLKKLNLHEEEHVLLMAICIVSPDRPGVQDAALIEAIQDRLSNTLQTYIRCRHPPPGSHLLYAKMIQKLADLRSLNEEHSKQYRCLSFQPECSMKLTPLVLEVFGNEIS

VDR [2] = molecular target: T1, VDR; experiment: VDRE-reporter (luciferase) assay in Jurkat cells; conditions: read-out: VDRE stimulation, EC50 ± standard deviation, 24 h incubation
VDR gene (mRNA) = experiment: Real-time PCR, VDR mRNA expression in HaCaT cells; conditions: 100 nM, 24 h

| SMILES | Cytokine level IFNγ (value ± SEM) (IFNγ) [pg/mL] | Cytokine level IL1β (value ± SEM) (IL1β) [pg/mL] | TRPV6 mRNA levels, increase (TRPV6 gene (mRNA)) [fold] | CYP24A1 mRNA levels, stimulation (CYP24A1 gene (mRNA)) [fold] | EC50 (VDR [1]) [nM] | EC50 (VDR [2]) [nM] | VDR mRNA expression, upregulation (VDR gene (mRNA)) [fold] |
| --- | --- | --- | --- | --- | --- | --- | --- |
| C=C1/C(=C\C=C2/CCC[C@]3(C)[C@@H]([C@H](C)CCCC(C)(C)O)CC[C@@H]23)C[C@@H](O)C[C@@H]1O [1,25(OH)2D3, 1α,25-dihydroxyvitamin D3] | 353 ± 11 | 121 ± 3 | 1.4 | 10 |  |  |  |
| C=C1/C(=C\C=C2/CCC[C@]3(C)[C@@H]([C@H](C)OCCC(C)(C)O)CC[C@@H]23)C[C@@H](O)C[C@@H]1O [Compound 22-Oxa, 22-oxa-1,25(OH)2D3] | 258 ± 2 | 91 ± 2 | 2.6 | 78 | 154.5 ± 0.8 | 1.2 ± 0.1 | 1.7 |
